Measurements reported in the supplement of paper PMC11348887.
Structures can show the parent of a compound that is named as a salt. The list shows a part of the results. Rule as the data show it: active = -2 or less and inactive = the rest. Most values come without repeats; read them as rough.

The molecules below were run on hPSC-derived cortical neurons (WA09) (assay: nuclei number (viability) z-score; higher = more surviving cells). Conditions: 5 µM; treatment: days 7-14 after plating, readout day 21.
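Also: nuclei counted from DAPI counterstain by automated high-content image analysis, four fields per well at ×20 in 384-well plates, with sequential b-score then z-score normalization.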

SMILES | nuclei number (z-score)
Cc1cn[nH]c1 [Fomepizole] | inactive: 5.01
O=C1NC(=O)C(c2cnc3ccccn23)=C1c1cn2c3c(cc(F)cc13)CN(C(=O)N1CCCCC1)CC2 | active: -2.44
COc1cc2ncnc(Sc3nnc(C)s3)c2cc1OC | inactive: -0.951
O=C(NC[C@H](O)CN1CCc2ccccc2C1)c1cc(NC2COC2)ncn1 | inactive: 0.579
CNC1CCCN(c2c(F)cc3c(=O)c(C(=O)O)cn(C4CC4)c3c2OC)C1 (stereo not given) [Balofloxacin] | inactive: 0.836
CC[C@H]1[C@@H](O)[C@@H]2[C@H](CC[C@]3(C)[C@@H]([C@H](C)CCC(=O)O)CC[C@@H]23)[C@@]2(C)CC[C@@H](O)C[C@@H]12 [Obeticholic Acid] | inactive: 0.0866
C[C@@H](Oc1ccc2[nH]nc(/C=C/c3cnn(CCO)c3)c2c1)c1c(Cl)cncc1Cl | inactive: -0.106
C[C@H]1O[C@H](O[C@H]2[C@H](O)[C@@H](O)[C@@H](O[C@H]3[C@H](O)[C@@H](O)C(O)O[C@@H]3CO)O[C@@H]2CO)[C@H](O)[C@@H](O)[C@@H]1N[C@H]1C=C(CO)[C@@H](O)[C@H](O)[C@H]1O (stereo not given in full) [Acarbose] | inactive: -0.338
O=c1[nH]c(C2CCCN2)nc2c1oc1ccc(Cl)cc12 (stereo not given) | inactive: 2.67
N=C(N)NC(=N)NCCc1ccccc1 [Phenformin HCl] | inactive: 0.0689
CO[C@H]1/C=C/O[C@@]2(C)Oc3c(C)c(O)c4c(O)c(c(/C=N/N5CCN(C6CCCC6)CC5)c(O)c4c3C2=O)NC(=O)/C(C)=C\C=C\[C@H](C)[C@H](O)[C@@H](C)[C@@H](O)[C@@H](C)[C@H](OC(C)=O)[C@@H]1C [Rifapentine] | inactive: 0.847
CC(C)Oc1ccc(-c2nc(-c3cccc4c3CC[C@@H]4NCCO)no2)cc1C#N [Ozanimod (RPC1063)] | inactive: -0.136
CN1CCC(=C2c3ccccc3C=Cc3ccccc32)CC1 [Cyproheptadine hydrochloride] | inactive: -0.704
CN1CCC(=C2c3ccccc3C=Cc3ccccc32)CC1 [Cyproheptadine HCl] | inactive: -1.53
O=C(O)[C@]1(Cc2cccc(Nc3nccs3)n2)CC[C@@H](Oc2cccc(Cl)c2F)CC1 | inactive: 0.485
COc1cc2c(Nc3ccc(NC(=O)c4ccccc4)cc3)ncnc2cc1OCCCN1CCOCC1 | inactive: 0.477
CC(=O)Nc1ccc(C(=O)Nc2ccccc2N)cc1 [CI994 (Tacedinaline)] | active: -5.44
CCCc1cc(C(N)=S)ccn1 [Protionamide] | inactive: -0.859
COc1cccc2c1c(O)c(C(=O)N(C)c1ccc(C(F)(F)F)cc1)c(=O)n2C [Tasquinimod] | inactive: 0.827
CC(=O)S[C@@H]1CC2=CC(=O)CC[C@]2(C)[C@H]2CC[C@@]3(C)[C@@H](CC[C@@]34CCC(=O)O4)[C@H]12 [Spironolactone] | inactive: -0.00721
C#Cc1cccc(Nc2ncnc3cc(OC)c(OCCCCCCC(=O)NO)cc23)c1 | active: -4.34
CN1CCN(C(=O)/C=C/c2ccc([N+](=O)[O-])o2)CC1 | inactive: -0.655

SMILES | nuclei number (z-score)
CC(C)(O)[C@H]1CC[C@@](C)([C@H]2[C@@H](O)C[C@@]3(C)[C@@H]4C[C@H](O[C@@H]5O[C@H](CO)[C@@H](O)[C@H](O)[C@H]5O)[C@H]5C(C)(C)[C@@H](O[C@@H]6OC[C@@H](O)[C@H](O)[C@H]6O)CC[C@@]56C[C@@]46CC[C@]23C)O1 [Astragaloside A] | inactive: 0.0867
C=C1CC[C@H](O)C/C1=C/C=C1\CCC[C@]2(C)[C@@H]([C@H](C)CCCC(C)C)CC[C@@H]12 [Vitamin D3] | inactive: 2.1
CCCCCN(C)CCC(O)(P(=O)(O)O)P(=O)(O)O [Ibandronate sodium] | inactive: -0.167
O=C(O)C1=C[C@@H](O)[C@@H](O)[C@H](O)C1 [Shikimic Acid] | inactive: -0.741
C1N2CN3CN1CN(C2)C3 [Methenamine] | inactive: 0.496
C=C(C)[C@@H]1CC[C@]2(C(=O)O)CC[C@]3(C)[C@H](CC[C@@H]4[C@@]5(C)CC[C@H](O)C(C)(C)[C@@H]5CC[C@]43C)[C@@H]12 [Betulinic acid] | inactive: 0.0241
CC[C@]12C=CCN3CC[C@@]4(c5cc([C@@]6(C(=O)OC)C[C@@H]7C[C@@H](C(C)(F)F)CN(Cc8c6[nH]c6ccccc86)C7)c(OC)cc5N(C)[C@H]4[C@@](O)(C(=O)OC)[C@@H]1OC(C)=O)[C@@H]32 [Vinflunine Tartrate] | active: -6.72
c1ccc2c(c1)CCCC2C1=NCCN1 (stereo not given) [Tetrahydrozoline HCl] | inactive: -0.629
CC(C)NC(=O)COc1cccc(-c2nc(Nc3ccc4[nH]ncc4c3)c3ccccc3n2)c1 | active: -4.78
CNc1ncnc2c1ncn2[C@@H]1O[C@H](CO)[C@@H](O)[C@H]1O [N6-methyladenosine (m6A)] | inactive: 0.254
CC(C)OC(=O)C(C(=O)OC(C)C)=C1SC=CS1 [Malotilate] | inactive: 0.436
CS(=O)(=O)c1ccc([C@@H](O)[C@@H](CF)NC(=O)C(Cl)Cl)cc1 [Florfenicol] | inactive: -0.373
CCN(CC)CCCC(C)Nc1ccnc2cc(Cl)ccc12 (stereo not given) [Chloroquine Phosphate] | inactive: 0.912
O=C(COc1cccc2c(=O)[nH]ccc12)c1ccccc1 | active: -2.74
CCNC(=O)[C@H]1O[C@@H](n2cnc3c(N)nc(NCCc4ccc(CCC(=O)O)cc4)nc32)[C@H](O)[C@@H]1O | inactive: -0.587
CCCCCOc1ccc(-c2ccc(-c3ccc(C(=O)N[C@H]4C[C@@H](O)[C@@H](O)NC(=O)[C@@H]5[C@@H](O)[C@@H](C)CN5C(=O)[C@H]([C@@H](C)O)NC(=O)[C@H]([C@H](O)[C@@H](O)c5ccc(O)cc5)NC(=O)[C@@H]5C[C@@H](O)CN5C(=O)[C@H]([C@@H](C)O)NC4=O)cc3)cc2)cc1 | inactive: 0.345
CC(C)c1nc(N(C)S(C)(=O)=O)nc(-c2ccc(F)cc2)c1/C=C/[C@@H](O)C[C@@H](O)CC(=O)O [Rosuvastatin Calcium] | active: -4.66
Nc1ccc(S(=O)(=O)NC(=O)c2ccccc2)cc1 [Sulfabenzamide] | inactive: -0.385
O=C1NC(=O)/C(=C/c2ccc3nccc(-c4ccncc4)c3c2)S1 | inactive: -0.995
CCCc1ncc(C[n+]2ccccc2C)c(N)n1 [Amprolium HCl] | inactive: -0.0386
OC[C@H]1OC(O)[C@H](O)[C@@H](O)[C@@H]1O (stereo not given in full) [Dextrose] | inactive: 1.51
O=C1NC(=O)C(c2ccccc2[N+](=O)[O-])=C1Nc1ccc(O)c(Cl)c1 | inactive: 0.154

SMILES | nuclei number (z-score)
COCCOc1nc(-c2ccc(Cl)c(Cl)c2)n(-c2ccc(NC(=O)CCl)cc2)n1 [MI-2 (MALT1 inhibitor)] | active: -2.77
CC(C(=O)O)c1cccc(Oc2ccccc2)c1 (stereo not given) [Fenoprofen Calcium] | inactive: 1.13
CC(C(=O)O)c1cccc(Oc2ccccc2)c1 (stereo not given) [Fenoprofen calcium hydrate] | inactive: -0.0231
Oc1ccc(C2CNCCc3c2cc(O)c(O)c3Cl)cc1 (stereo not given) [Fenoldopam mesylate] | inactive: 1.72
C[C@H](NCc1ccc(OCc2cccc(F)c2)cc1)C(N)=O [Safinamide Mesylate] | inactive: 0.588
CC(=O)OCC(=O)NCCCOc1cccc(CN2CCCCC2)c1 [Roxatidine Acetate HCl] | inactive: -0.593
CCn1cc(C(=O)O)c(=O)c2cc(F)c(N3CCNCC3)nc21 [Enoxacin] | inactive: 2.54
OC[C@@H](O)[C@@H](O)[C@H](O)[C@H](O)CO [D-Mannitol] | inactive: 0.427
CC[C@H]1OC(=O)[C@H](C)[C@@H](O[C@H]2C[C@@](C)(OC)[C@@H](O)[C@H](C)O2)[C@H](C)[C@@H](O[C@@H]2O[C@H](C)C[C@H](N(C)C)[C@H]2O)[C@](C)(O)C[C@@H](C)C(=O)[C@H](C)[C@@H](O)[C@]1(C)O [Erythromycin] | inactive: 4.15
CC(C(=O)O)c1ccc(CC2CCCC2=O)cc1 (stereo not given) [Loxoprofen] | inactive: 0.383
O=C(O)CCc1nc(-c2ccccc2)c(-c2ccccc2)o1 [Oxaprozin] | inactive: -0.418
O=C(O)CCCc1c[nH]c2ccccc12 [3-Indolebutyric acid (IBA)] | inactive: -0.458
O=C(c1cc(Cc2n[nH]c(=O)c3ccccc23)ccc1F)N1CCN(C(=O)C2CC2)CC1 | inactive: -0.487
O=C1c2ccccc2C(=O)C1c1ccccc1 [Phenindione] | inactive: -0.212
Clc1ccc2c(c1)C(N1CCNCC1)=Nc1ccccc1O2 [Amoxapine] | inactive: 4.32
c1ccc(CC2=NCCN2)cc1 [Tolazoline HCl] | inactive: 0.111
OCCN1CCN(CCCN2c3ccccc3Sc3ccc(C(F)(F)F)cc32)CC1 [Fluphenazine dihydrochloride] | active: -3.66
CC(C)(Oc1ccc(CCNC(=O)c2ccc(Cl)cc2)cc1)C(=O)O [Bezafibrate] | inactive: 4.98
CCc1ccc(CCOc2ccc(CC3SC(=O)NC3=O)cc2)nc1 (stereo not given) [Pioglitazone HCl] | inactive: 4.18
CCc1ccc(CCOc2ccc(CC3SC(=O)NC3=O)cc2)nc1 (stereo not given) [Pioglitazone] | inactive: 0.0566
Cc1ccc(N(CC2=NCCN2)c2cccc(O)c2)cc1 [Phentolamine Mesylate] | inactive: 0.0606
